Experimental findings from a collection of fitness landscapes (doi:10.1126/science.1257360) are described below.

This is one part of the list. Where only a bound is given, the exact number is not on record here.

B1: PhoQ; a variant is named by its letters at X, in order, P23837 (parent)
chain: MKKLLRLFFPLSLRVRFLLATAAVVLVLSLAYGMVALIGYSVSFDKTTFRLLRGESNLFYTLAKWENNKLHVELPENIDKQSPTMTLIYDENGQLLWAQRDVPWLMKMIQPDWLKSNGFHEIEADVNDTSLLLSGDHSIQQQLQEVREDDDDAEMTHSVAVNVYPATSRMPKLTIVVVDTIPVELKSSYMVWSWFIYVLSANLLLVIPLLWVAAWWSLRPIEALAKEVRELEEHNRELLNPATTRELTSLVRNLNRLLKSERERYDKYRTTLTDLTHSLKTPLXXLQXXLRSLRSEKMSVSDAEPVMLEQISRISQQIGYYLHRASMRGGTLLSRELHPVAPLLDNLTSALNKVYQRKGVNISLDISPEISFVGEQNDFVEVMGNVLDNACKYCLEFVEISARQTDEHLYIVVEDDGPGIPLSKREVIFDRGQRVDTLRPGQGVGLAVAREITEQYEGKIVAGESMLGGARMEVIFGRQHSAPKDE

The variants in the experiment derive from B1. Nature of the experiment: enrichment ratio after two sorts for PhoP signalling (ratio (wild type AVST 3.29)); higher = more functional. As to conditions: with PhoP (E. coli).
Take KHAG: the enrichment ratio is ≤ 0.25.

QKIT: the enrichment ratio was ≤ 0.25. With WHWY the figure was ≤ 0.25. Take WMVH: the enrichment ratio was 4.32.

Regarding VTVV, the enrichment ratio was ≤ 0.25. In the case of LQFL, the enrichment ratio was ≤ 0.25. As to TALV, the enrichment ratio came to 10.2. For YRNL, the enrichment ratio was ≤ 0.25. With LMMW the figure was ≤ 0.25; with TDVP, ≤ 0.25.

With NFKD, the enrichment ratio was ≤ 0.25. With SQTY the figure was 8.07; with FHCP, ≤ 0.25; with ECDV, ≤ 0.25.

HKPV: the enrichment ratio was ≤ 0.25.

Regarding MLTY, the enrichment ratio was ≤ 0.25. Regarding LYCV, the enrichment ratio was ≤ 0.25. For WNPM the value was ≤ 0.25; for DGPY, ≤ 0.25. With SVEI the figure was ≤ 0.25; with VYTQ, ≤ 0.25. For HVVS the value was ≤ 0.25. For VRYP, the enrichment ratio is ≤ 0.25.

Turning to LQKR, the enrichment ratio was ≤ 0.25. For TNWP the value was ≤ 0.25; for WNCT, ≤ 0.25. For KPDL the value was ≤ 0.25; for SQSN, 7.46. For WTWW the value was ≤ 0.25; for GQKF, ≤ 0.25; for LMKL, ≤ 0.25.

For NQLQ, the enrichment ratio was ≤ 0.25. For TRHG the value was ≤ 0.25; for DMYA, ≤ 0.25; for GNRF, ≤ 0.25. With PWCT the figure was ≤ 0.25; with MFHE, ≤ 0.25. For SVLI the value was 2.91. Take QIST: the enrichment ratio is ≤ 0.25. As to ASGH, the enrichment ratio was ≤ 0.25. Turning to QHFC, the enrichment ratio was ≤ 0.25.

Take HVAP: the enrichment ratio is ≤ 0.25. For NRNR, the enrichment ratio was ≤ 0.25. For the variant MFML, the enrichment ratio is ≤ 0.25. For PMYF the value was ≤ 0.25; for VHNA, ≤ 0.25; for CNFF, ≤ 0.25. For RCTI, the enrichment ratio is ≤ 0.25.

For TVCW, the enrichment ratio was ≤ 0.25.

As for RTQR, the enrichment ratio was ≤ 0.25. For VVRD the value was ≤ 0.25. Turning to TATI, the enrichment ratio is 5.19. With ETEC the figure was ≤ 0.25; with WDYH, ≤ 0.25; with SSYP, ≤ 0.25. With RNRR the figure was ≤ 0.25; with PDHI, ≤ 0.25; with TTGH, 10.5. With ENEY the figure was ≤ 0.25; with SQFL, ≤ 0.25; with FRCK, ≤ 0.25.

In the case of TQGL, the enrichment ratio amounted to 5.29. For YPHH the value was ≤ 0.25; for VEHE, ≤ 0.25; for FMVK, ≤ 0.25. On to EYEV, for which the enrichment ratio was ≤ 0.25.

Take QTKV: the enrichment ratio is ≤ 0.25.

As to MAFM, the enrichment ratio was found to be 14.7. With QQHC the figure was ≤ 0.25; with SGVQ, 20.5. For APWD the value was ≤ 0.25. KMYR: the enrichment ratio is ≤ 0.25.

On to PIIA, for which the enrichment ratio is ≤ 0.25. With EDRF the figure was ≤ 0.25; with KRYD, ≤ 0.25; with MMAE, 0.333.

Turning to WQCF, the enrichment ratio was ≤ 0.25. For TKEN the value was ≤ 0.25; for EAIS, ≤ 0.25; for IVCS, ≤ 0.25. For the variant SLNY, the enrichment ratio is ≤ 0.25.

Consider RMIY, for which the enrichment ratio was ≤ 0.25. For TALK the value was 9.82. With ETIK, the enrichment ratio was ≤ 0.25. For MVSM the value was 12.3. With HLNF the figure was ≤ 0.25. For AQNL the value was ≤ 0.25; for GQNN, ≤ 0.25. Regarding MPAH, the enrichment ratio was ≤ 0.25.

For NGFE, the enrichment ratio is ≤ 0.25.

As to QSHP, the enrichment ratio was ≤ 0.25. With WIWY, the enrichment ratio is ≤ 0.25. As for LLNM, the enrichment ratio is ≤ 0.25. For ATHF the value was ≤ 0.25. SPHS: the enrichment ratio was ≤ 0.25.

In the case of EDMV, the enrichment ratio was ≤ 0.25. LPPV: the enrichment ratio is ≤ 0.25. On to RWFS, for which the enrichment ratio was ≤ 0.25. Take NMLA: the enrichment ratio is ≤ 0.25. In the case of AATS, the enrichment ratio was 3.19. With YLYI the figure was ≤ 0.25; with FAPT, ≤ 0.25; with LQWL, ≤ 0.25. As for VVLE, the enrichment ratio was ≤ 0.25.

With DTGV, the enrichment ratio amounted to 0.428. With TVWN the figure was 2.25. Turning to ATRM, the enrichment ratio was ≤ 0.25. For MTTH the value was ≤ 0.25; for VHMN, ≤ 0.25; for YMIQ, ≤ 0.25. For LTMC the value was 2.73. For CSSI the value was ≤ 0.25; for DLMV, ≤ 0.25; for IYYD, ≤ 0.25. For AFPG, the enrichment ratio is ≤ 0.25.

With ALAF, the enrichment ratio worked out at 8.13. With PSTV the figure was ≤ 0.25; with QLFD, 3.39; with GHEM, ≤ 0.25. As to VQGV, the enrichment ratio is ≤ 0.25. With DYIK the figure was ≤ 0.25. For QLYT the value was ≤ 0.25; for KCQA, ≤ 0.25; for SIIA, 2.51. Regarding IDEA, the enrichment ratio was ≤ 0.25. As for SIGT, the enrichment ratio stood at 1.85.

As to VVVK, the enrichment ratio is ≤ 0.25. As for TDMV, the enrichment ratio was 8.54. For GCKI the value was ≤ 0.25; for RHPS, ≤ 0.25; for QANF, 21. As to MNVM, the enrichment ratio worked out at 6.13.

Take LDRH: the enrichment ratio is ≤ 0.25.

Consider LVLH, for which the enrichment ratio was ≤ 0.25. With NLVY the figure was ≤ 0.25.

As for IHSG, the enrichment ratio was ≤ 0.25. For NGRW the value was ≤ 0.25; for NEQC, ≤ 0.25; for AFDS, ≤ 0.25. For the variant YDKF, the enrichment ratio is ≤ 0.25. On to KTKC, for which the enrichment ratio is ≤ 0.25. On to MFSD, for which the enrichment ratio is ≤ 0.25.

Regarding DEQD, the enrichment ratio was ≤ 0.25. With EYCA the figure was ≤ 0.25; with KMGK, ≤ 0.25; with QEDY, ≤ 0.25. Take SGIN: the enrichment ratio worked out at 11.4. With HRRF the figure was ≤ 0.25; with PYCI, ≤ 0.25; with VRNL, ≤ 0.25.

With ARDK, the enrichment ratio was ≤ 0.25.

As for NGSV, the enrichment ratio is ≤ 0.25. With YDCV the figure was ≤ 0.25; with VEYY, ≤ 0.25. For GDHM the value was ≤ 0.25; for YMGY, ≤ 0.25; for PSIA, ≤ 0.25.

On to AFTP, for which the enrichment ratio is ≤ 0.25. CLTR: the enrichment ratio is ≤ 0.25. For MSIR the value was ≤ 0.25. With SVAS the figure was 8.9; with PHRF, ≤ 0.25; with STPS, ≤ 0.25. For the variant EVAK, the enrichment ratio was ≤ 0.25. In the case of AVDF, the enrichment ratio is ≤ 0.25. Take HEVK: the enrichment ratio is ≤ 0.25. With QLHT the figure was ≤ 0.25. As to SGAI, the enrichment ratio was found to be 12.3. In the case of LICQ, the enrichment ratio was ≤ 0.25. Turning to EIKL, the enrichment ratio was ≤ 0.25. For ATLG, the enrichment ratio was determined as 12.3. For DDIL the value was ≤ 0.25. For MFVM the value was ≤ 0.25; for NLCK, ≤ 0.25.

As for HMKL, the enrichment ratio is ≤ 0.25.

Consider ESHM, for which the enrichment ratio was ≤ 0.25.

Consider GELS, for which the enrichment ratio turned out to be 8.59.

With AVAN, the enrichment ratio was ≤ 0.25. For HLTV the value was ≤ 0.25; for DMRK, ≤ 0.25. With GVWW the figure was ≤ 0.25.

With WRLY, the enrichment ratio is ≤ 0.25. With TRNL the figure was 0.323; with MGAI, 16.1; with DRMV, ≤ 0.25.

Consider VLQG, for which the enrichment ratio was ≤ 0.25. In the case of GSRR, the enrichment ratio was ≤ 0.25. With YMKK the figure was ≤ 0.25. As to PNMP, the enrichment ratio was ≤ 0.25. For VTCS the value was ≤ 0.25; for FMES, ≤ 0.25.

Consider IMAK, for which the enrichment ratio was ≤ 0.25.

As for KAVR, the enrichment ratio is ≤ 0.25. For YQRK, the enrichment ratio is ≤ 0.25.

For the variant SWDN, the enrichment ratio was ≤ 0.25.
